PubChem BioAssay AID1159614 (National Center for Advancing Translational Sciences (NCATS), 2016)
In all, about 45,000 compounds went through this assay and about 65 (0.1%) were called active. Calls come from the whole dose curve; as a rule, active = well fitted activation curve with a large enough effect; inconclusive = small, poorly fitted or top-dose-only effect; inactive = no such curve, though single readings can be large or run the other way. The list shows a part of the results.

target: Galactocerebrosidase (Homo sapiens) (UniProt P54803); test: A Novel Cell-Based Assay to Identify Small Molecules for B -Galactocerebrosidase; details: 145M-Twi-hGALC-G270D cells (Twitcher mouse brain line with human GALC G270D), HMU-beta-Gal fluorescence, 48 h; series mostly up to 57.5 µM; activation: at the top concentration; note: 0% is about no effect; nearly all actives have a fitted effect of over 65% in size
Summary of the method: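 Live 145M-Twi cells (Twitcher mouse brain-derived, GALC-null) stably expressing human GALC-G270D, with a wild-type GALC line, were compound-treated. Residual GALC activity was then read as fluorescence from 0.1 mM final HMU-β-gal at pH 5.2; higher signal means activation.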

UniProt P54803, sequence (P54803 whole entry, looked up): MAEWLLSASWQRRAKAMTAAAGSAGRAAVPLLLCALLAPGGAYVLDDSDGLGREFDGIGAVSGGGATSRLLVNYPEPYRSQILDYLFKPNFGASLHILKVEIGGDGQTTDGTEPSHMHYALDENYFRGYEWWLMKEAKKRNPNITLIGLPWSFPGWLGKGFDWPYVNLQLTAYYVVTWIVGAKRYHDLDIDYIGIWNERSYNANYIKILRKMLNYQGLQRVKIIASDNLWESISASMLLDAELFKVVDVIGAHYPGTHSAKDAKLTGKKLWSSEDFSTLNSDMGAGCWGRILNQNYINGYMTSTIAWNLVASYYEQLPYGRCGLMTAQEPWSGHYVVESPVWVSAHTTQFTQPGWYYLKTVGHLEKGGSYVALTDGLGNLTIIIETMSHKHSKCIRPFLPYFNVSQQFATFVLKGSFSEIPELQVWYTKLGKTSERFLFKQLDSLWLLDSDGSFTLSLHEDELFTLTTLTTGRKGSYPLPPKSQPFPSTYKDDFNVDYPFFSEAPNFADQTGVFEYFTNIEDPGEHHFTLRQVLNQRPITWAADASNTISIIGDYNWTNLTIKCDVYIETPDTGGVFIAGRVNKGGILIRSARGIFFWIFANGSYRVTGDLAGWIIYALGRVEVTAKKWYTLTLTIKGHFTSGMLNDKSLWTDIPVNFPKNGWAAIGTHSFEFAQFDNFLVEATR

activation, inactive:
COc1ccc(CNC(=O)C2CCN(c3nnc(-n4c(C)ccc4C)s3)CC2)c(OC)c1 -0.774%
Cc1ccccc1Cn1c(COc2ccc(Cl)cc2)nc2ccccc21 -12%
Cc1nc2ccc(S(=O)(=O)N(C)CC(=O)Nc3ccc(C(C)C)cc3)cc2s1 -15.8%
O=C(Nc1cccc(F)c1)C1CCCN(S(=O)(=O)c2cccc3cccnc23)C1 (centres undefined) -9.98%
O=C(Cn1nc(-c2ccc(Cl)cc2)c2ccccc2c1=O)Nc1cccc(Br)c1 1.71%
CCCOC(=O)c1cccc(NC(=O)c2c(-c3ccccc3Cl)noc2C)c1 -0.584%
CCCCC(=O)Nc1c(C(=O)N2CCN(c3ccccc3F)CC2)oc2ccccc12 -20.6%
COc1ccc(NC(=O)CN2CCN(CC(=O)Nc3ccccc3F)CC2)c(OC)c1 -14.1%
Cc1ccc(-n2ncc(C(=O)NCCN3CCc4ccccc4C3)c2C2CCN(C(=O)OC(C)(C)C)CC2)cc1C -35.8%
O=c1c2cc3c(cc2nc2sc(Nc4ccccc4)nn12)OCO3 -5.62%
CC1CCN(S(=O)(=O)c2ccc3c(c2)c(=O)c(C(=O)N2CCN(c4cccc(Cl)c4)CC2)cn3C)CC1 -11.6%
CCOC(=O)c1c(C)oc2nc(C)nc(NCCc3ccc(OCC)c(OCC)c3)c12 -12%
COc1ccc(N2CCN(c3ncnc4c3cnn4-c3ccc(F)cc3)CC2)cc1 -9.1%
COC(=O)c1ccc(NC(=O)CSc2cn(CC(=O)N3CCCCC3)c3ccccc23)cc1 -11.9%
COc1ccc(-c2nc(SCC(=O)NC(C)CCc3ccccc3)n[nH]2)cc1 (centres undefined) 2.36%
COc1ccc(S(=O)(=O)c2c(Nc3cccc(C)c3C)sc(C(=O)c3ccccc3)c2N)cc1 -25.6%
Cc1cccc(C)c1NC(=O)CN1CCN(CCCC(c2ccc(F)cc2)c2ccc(F)cc2)CC1 -15.9%
CCN(c1ccccc1)S(=O)(=O)c1nnc(NC(=O)c2ccccc2OC)s1 -9.18%
CCOCCc1nn2c(=O)cc(COC(=O)c3ccc(NC(=O)C4CCCCC4)cc3)nc2s1 -1.15%
COc1cc(C)c(Cc2cnc(N)nc2N)cc1OC -16.8%
CCCN(C(=O)c1cn(C)c(=O)c2cc(OC)c(OC)cc12)c1ccc(CC)cc1 -7.19%
CCc1ccccc1NC(=O)CCCSc1nc(-c2ccco2)cc(C(F)(F)F)n1 -11.2%
COc1ccc(NC(=O)C2=CC(c3ccco3)=NS(=O)(=O)N2C)cc1OC -1.12%
O=C1CC(c2c(Cl)cccc2Cl)c2c(ccc3ccccc23)N1 (centres undefined) -36.7%
CC1=C(C(=O)Nc2ccccc2Cl)C(c2cccc(O)c2)n2ncnc2N1 (centres undefined) -11%
Cc1cc(NC(=O)c2ccc3c(c2)N(Cc2cccc(Cl)c2)C(=O)c2ccccc2S3(=O)=O)ccc1Br -4%
O=C(CS(=O)(=O)c1cccc2nsnc12)N1CCN(c2ccccc2F)CC1 -7.71%
O=C(Nc1ccc(Cl)cc1)C1CCC(CNS(=O)(=O)c2ccc(Br)s2)CC1 (centres undefined) -19.3%
Cc1nn(-c2ccccc2)c(OC(=O)c2ccccc2Br)c1S(=O)(=O)c1ccccc1 -7.29%
CCCCN(C)CCCNC(=O)C1CCN(S(=O)(=O)CCC)CC1 -4.19%
COc1ccc(-c2cc(C(F)(F)F)nc(SCCC(=O)Nc3ccc(NC(C)=O)cc3)n2)cc1 23.6%
O=C(Nc1ccccc1C(F)(F)F)c1ncoc1-c1ccco1 -14.8%
COCCNc1nc2c(c(=O)n(C)c(=O)n2C)n1Cc1c(F)cccc1Cl 0.932%
C[C@H]1C[C@H](O)c2ccsc2S1(=O)=O -10%
CCOc1ccc(CN2C(=O)c3ccccc3Sc3ccc(C(=O)NCc4ccco4)cc32)cc1 -12.8%
COc1ccc(Cl)cc1NC(=O)CSc1cn(CC(=O)N2CCCCC2)c2ccccc12 -15.8%
Cc1oc(-c2cccc(Cl)c2)nc1CN1CCC(C(=O)NC(C)c2ccccc2)CC1 (centres undefined) -6.96%
CCN(CC)c1ccc(CNCCCSc2nnnn2C)cc1 -11.2%
COc1ccc(CNC(=O)c2cc(Nc3ccccc3C)nc3ccccc23)cc1 -14.7%
Cc1nn2c(=O)cc(COC(=O)c3ccc(NC(=O)COc4ccc(C)c(C)c4)cc3)nc2s1 -8.31%
O=c1n(Cc2ccccc2Cl)c2ccccc2c2nc(-c3ccccc3)nn12 -7.04%
CC(C)NC(=O)c1ccc(Cn2c(SCC(N)=O)nc3ccccc3c2=O)cc1 -14.9%
Cc1ccc(CCNC(=O)c2ccc3nc(N4CCC(C)CC4)sc3c2)cc1 -3.68%
CCOc1ccc(C2CC(=O)Nc3nc(SCc4ccccc4C)[nH]c(=O)c32)cc1OC (centres undefined) -11.1%
Cc1ccc(C)c(NC(=O)n2ncc3cc(Cl)ccc32)c1 -11.1%
COC(=O)C(C)Sc1ccc2nnc(CCNS(=O)(=O)c3ccc(C)cc3)n2n1 (centres undefined) -3.98%
COCCCNC(=O)Cn1cnc2sc(C)c(S(=O)(=O)N3CCC(C)CC3)c2c1=O -31.6%
Cc1ncc(CO)c2c1Oc1nc(-c3ccccc3Cl)nc(SCc3ccccc3F)c1C2 -4.39%
CCC(Oc1ccccc1-c1nnc(-c2ccccc2)o1)C(=O)Nc1ccc(C(C)=O)cc1 (centres undefined) -5.64%
COC(=O)c1ccc(NC(=O)CSc2ccc(-c3sc(-c4ccccc4)nc3C)nn2)cc1 -12.1%
COC(=O)c1cc2oc(C)cc2n1Cc1ccc(Br)cc1F -9.13%
CCc1ccc(-n2c(=O)c3cccnc3n2CC(=O)NCc2ccccc2)cc1 -11.9%
COc1cc(Cl)c(C)cc1Nc1nc2ccccc2c2nnc(C)n12 -24.3%
O=C(NCc1cccnc1)c1nn(-c2ccc(Cl)cc2)nc1CO 0.508%
COc1ccc2nc(N(Cc3cccnc3)C(C)=O)sc2c1 -20.6%
COc1ccc(C2CC(=O)N3CN(C4CCCCC4)CSC3=C2C#N)c(OC)c1 (centres undefined) -1.22%
COc1ccccc1C1CC(=O)NC(C)=C1C(=O)OC1CCCCCC1 (centres undefined) -5.36%
O=C(NC1CC(=O)N(c2ccc(F)cc2)C1)c1ccco1 (centres undefined) -16.3%
COc1ccc(Nc2ncc3c(n2)CCN(Cc2ccccc2C)C3)c(OC)c1 -16.1%
O=C(Nc1cccc(C(F)(F)F)c1)c1ccc2c(c1)nnn2C1CCCC1 -0.231%
COC(=O)c1c(C)oc2ccc(N(C(=O)c3ccncc3)S(=O)(=O)c3ccc(OC)cc3)cc12 -19.4%
COc1ccc(S(=O)(=O)NCCc2nnc3ccc(SCC(=O)Nc4ccccc4C)nn23)cc1 -4.88%
CCc1ccc(-n2c(=O)c3c4c(sc3n(Cc3ccccc3C#N)c2=O)CCC4)cc1 16.4%
CN(C)c1ccc(CNS(=O)(=O)c2ccc(-c3cc(C(F)(F)F)on3)s2)cc1 -10.8%
COc1cc2c(cc1OC)CN(C(=O)Nc1ccccc1)CC2 7.47%
Cn1cc(CN(C(=O)Nc2ccccc2)C2CCCCC2)c2ccccc21 3.02%
COc1ccc(-c2nc3sc(CCNC(=O)c4ccco4)c(C)n3n2)cc1 2.4%
CCS(=O)(=O)Nc1ccc(-c2cn3ccsc3n2)cc1 -15.1%
CCCCn1c(=N)n(CCCOc2ccc(F)cc2)c2ccccc21 -0.358%
COc1ccccc1NC(=O)c1ccc(COc2ccc(C)c(C)c2)o1 -6.77%
Cc1cccc(N2CCN(S(=O)(=O)c3c(C)nc4scc(C)n4c3=O)CC2)c1C -36.4%
CCn1cc2nc(SCc3cc(C)ccc3C)n(CCc3ccccc3)c(=O)c2n1 -14.1%
CCCCn1c(=O)c2oc3ccccc3c2n(CC(=O)Nc2ccc(CC)cc2)c1=O -6.13%
Cc1ccc(NC(=O)CC2Oc3ccccc3NC2=O)cc1C (centres undefined) -13.4%
Cc1c(C(=O)NCc2cccc(Cl)c2)sc2nc3n(c(=O)c12)CCCC3 -18.1%
COc1ccc(CCNC(=O)CN2C(=O)COc3ccc(S(=O)(=O)N4CCCC4)cc32)c(OC)c1 -27.5%
COc1ccc(-c2cnnn2-c2ccc(NC(=O)c3ccccc3OC)cc2)cc1 -10.3%
Nc1nn(-c2ccccc2)nc1C(=O)OCc1ccc(Cl)cc1 -1.82%
COc1ccc(-c2nc3sc(CCNC(=O)C(=O)Nc4cccc(NC(C)=O)c4)c(C)n3n2)cc1 -17%
COc1c(C)cccc1C(=O)Nc1ccc(-c2nc3ccccc3s2)c(Cl)c1 -16.6%
Cc1c(C(=O)NCc2cccc(Br)c2)oc2ccc3c(c12)C(=O)CC(C)(C)O3 0.148%
Cn1c(=O)n(Cc2c(F)cccc2Cl)c(=O)c2c1nc1n2CCN1c1ccc(F)cc1 -0.26%
CCN(CC)CCCNC(=O)c1ccc(Cn2c(SCc3ccccc3)nc3cccnc32)cc1 -16.2%
COCCNC(=O)c1nn(-c2ccc(C)cc2)c(=O)c2c1c1ccccc1n2C -4.82%
Cc1ccc(CCNC(=O)C2CCCN(c3nnc(C)c4c(C)n(-c5ccccc5)nc34)C2)cc1 (centres undefined) -8.47%
COc1ccc(-c2cn3nc(N4CCCC(C(=O)NCc5ccc(Cl)cc5)C4)sc3n2)cc1 (centres undefined) -14.5%
CC1=C(C(=O)NCc2ccccc2F)C2(CCCCC2)OC1=O -0.167%
CC1=C(c2ccc(F)cc2)S(=O)(=O)N=C1N1CCC(C(=O)NCCc2cccc(C)c2)CC1 -19.8%
Cc1ccc(CSc2ncc(Cl)c(C(=O)Nc3nnc(C)s3)n2)cc1 -7.42%
COc1cccc(-c2nc(CS(=O)(=O)CC(=O)NCc3cccc(Cl)c3)c(C)o2)c1 -16.2%
O=C(Nc1ccccc1Cl)N1CCC(CN2CCCC2)CC1 -6.85%
Cc1ccc(NC(=O)CN2C(=O)c3cccnc3Oc3ccc(Cl)cc32)cc1 3.58%
O=C(NCc1ccc2c(c1)CCN2C(=O)c1ccccc1)Nc1cccc(C(F)(F)F)c1 -18.8%
Cc1ccccc1OCCSc1nc2ccc(NC(=O)c3cccc(F)c3)cc2s1 -32.5%
COc1ccc(Cn2ccnc2SCC(=O)Nc2nc3ccccc3s2)cc1 -6.92%
CN(C)CCCNc1cc(N2CCN(C3CCCCC3)CC2)c2noc3c2c1C(=O)c1ccccc1-3 -17.7%
COc1cc2ncc3c(-c4ccc(C)cc4)nn(-c4ccc(F)cc4F)c3c2cc1OC -7.04%
COc1ccc(NC(=O)c2cc3c(s2)-c2c(C)cccc2OC3)cc1Cl -14.1%
CCOC(=O)c1c(C)n(-c2ccccc2)c2ccc(OC(=O)COc3ccc(Cl)cc3)cc12 -16.8%
